The supplement of paper PMC9446081
Out of some 39,000 compounds screened, about 220 (0.56%) showed activity. The list shows a part of the results.

What follows are compounds tested on Escherichia coli K-12 BW25113 (assay: relative growth (OD600 normalised to plate interquartile mean) (fraction); higher = less growth inhibition, active = 0.2 or less). Settings: 50 µM; LB; incubation time: overnight (16-24 h).
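Further: static incubation at 37 °C against the wild-type strain, values averaged over two biological replicates.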

| Compound | relative growth |
| --- | --- |
| C[C@@H]1CN([C@@H](C)CO)C(=O)c2cc(NC(=O)c3ccncc3)ccc2O[C@@H]1CN(C)S(=O)(=O)c1cccs1 | inactive: 1.03 |
| C[C@@H]1CN([C@H](C)CO)C(=O)c2cccc(NC(=O)c3ccncc3)c2O[C@H]1CN(C)S(=O)(=O)c1cccs1 | inactive: 0.984 |
| Cc1noc(C)c1NC(=O)Nc1ccc2c(c1)C(=O)N([C@H](C)CO)C[C@@H](C)[C@@H](CN(C)C(=O)NC1CCCCC1)OCCCC[C@H](C)O2 | inactive: 1.02 |
| O=C(Cc1n[nH]c(=O)[nH]1)NCc1n[nH]c2c1CCCCC2 | inactive: 1.03 |
| Cc1ccc(S[C@]2(C(=O)NCC(F)(F)F)CC(=O)N(Cc3ccccc3Cl)[C@@H]2c2ccc(CO)cc2I)cc1 | inactive: 0.918 |
| CCCNC(=O)N1C[C@@H](C)[C@@H](OC)CN(C)C(=O)c2ccc(NS(=O)(=O)CC(F)(F)F)cc2OC[C@@H]1C | inactive: 0.977 |
| Cc1noc(C)c1NC(=O)Nc1cccc2c1O[C@H](CN(C)S(C)(=O)=O)[C@H](C)CN([C@H](C)CO)C2=O | inactive: 1.01 |
| COc1ccccc1NC(=O)N(C)C[C@H]1Oc2ncc(Br)cc2C(=O)N([C@@H](C)CO)C[C@@H]1C | inactive: 0.979 |
| CN1CCC[C@@H](CC2c3ccccc3Sc3ccccc32)C1 | inactive: 0.951 |
| C[C@@H]1CCCCO[C@H](CN(C)C(=O)Nc2ccc(C(F)(F)F)cc2)[C@@H](C)CN([C@H](C)CO)C(=O)c2cc(NC(=O)Nc3ccc4c(c3)OCO4)ccc2O1 | inactive: 1.05 |
| COc1ccc(S(=O)(=O)N(C)C[C@@H]2Oc3ccc(NC(=O)C4CC4)cc3CC(=O)N([C@H](C)CO)C[C@@H]2C)cc1 | inactive: 0.973 |
| COc1ccc(NC(=O)Nc2ccc3c(c2)C(=O)N([C@@H](C)CO)C[C@@H](C)[C@H](CN(C)S(=O)(=O)c2c(C)noc2C)OCCCC[C@H](C)O3)cc1 | inactive: 1.02 |
| C[C@@H]1CCCCO[C@H](CN(C)S(=O)(=O)c2cccs2)[C@H](C)CN([C@@H](C)CO)C(=O)c2cc(NC(=O)NC3CCCCC3)ccc2O1 | inactive: 1.01 |
| C[C@@H]1CCCCO[C@@H](CN(C)C(=O)Cc2ccccc2)[C@@H](C)CN([C@@H](C)CO)C(=O)c2cc(NC(=O)Nc3ccccc3)ccc2O1 | inactive: 1 |
| C[C@@H]1CN([C@@H](C)CO)C(=O)Cc2cc(NC(=O)Nc3cccc4ccccc34)ccc2O[C@H]1CN(C)S(=O)(=O)c1cccs1 | inactive: 1.04 |
| COC(=O)[C@H](Cc1ccc(-n2cc(CCC(=O)NO)nn2)cc1)N[C@H](/C=C/C1CC1)[C@@H](O)Cc1ccccc1 | inactive: 0.985 |
| COc1cccc(OC[C@@H](O)CN(CCO)CCO)c1 | inactive: 0.98 |
| Cc1ccc(Nc2nc(-c3ccc(C)cc3)c(C)s2)cc1 | inactive: 1.01 |
| CN1C(=O)c2cc(NC(=O)C3CCOCC3)ccc2OC[C@@H]2O[C@H](CC(=O)NCc3ccccc3F)CC[C@@H]21 | inactive: 0.996 |
| C[C@H]1CCCCO[C@H](CN(C)S(=O)(=O)c2ccc(F)cc2)[C@@H](C)CN([C@@H](C)CO)C(=O)c2cc(NC(=O)C3CCCCC3)ccc2O1 | inactive: 0.992 |

| Compound | relative growth |
| --- | --- |
| Cn1cnc(S(=O)(=O)N2C[C@@H](O)COC[C@@H]3O[C@H](CC(=O)NC4CCCC4)CC[C@H]32)c1 | inactive: 0.952 |
| Cc1noc(C)c1S(=O)(=O)N(C)C[C@H]1Oc2ccc(NC(=O)CCC(F)(F)F)cc2CC(=O)N([C@@H](C)CO)C[C@@H]1C | inactive: 0.979 |
| C[C@@H]1CCCCO[C@@H](CN(C)Cc2ccccc2)[C@@H](C)CN([C@H](C)CO)C(=O)c2cc(NS(=O)(=O)c3ccccc3)ccc2O1 | inactive: 0.961 |
| COc1ccc(NC(=O)Nc2ccc3c(c2)C(=O)N([C@@H](C)CO)C[C@@H](C)[C@@H](CN(C)C(=O)C2CCCCC2)OCCCC[C@H](C)O3)cc1 | inactive: 0.999 |
| C=C(C)C(=O)NC(=O)/C=C/C | inactive: 0.962 |
| C[C@@H]1COCCS(=O)(=O)N1C | inactive: 1.01 |
| C=CCC[C@@H](Cc1ccc(F)cc1)C(=O)O[C@H](CNC(=O)[C@@H](CC=C)CC(=O)N[C@H](CO)Cc1ccccc1)c1ccccc1 | inactive: 1.03 |
| Cc1cc(C)n(C)c(=O)c1C(=O)O | inactive: 1.03 |
| CC(=CCO)CCC(C)CCCC(C)CCCC(C)C (stereo not given) | inactive: 1.04 |
| O=C(CCCCCNC(=O)OCCCCO[C@H]1C[C@@H](c2coc3ccccc3c2=O)C=C(C(=O)N2CCOCC2)O1)NO | inactive: 0.995 |
| CNC(=O)[C@H]1O[C@@H](n2cnc3c(NCc4cccc(I)c4)nc(Cl)nc32)[C@H](O)[C@@H]1O | inactive: 1.01 |
| CC(C)NC(=O)Nc1ccc2c(c1)CC(=O)N([C@H](C)CO)C[C@H](C)[C@@H](CN(C)S(=O)(=O)c1ccc(Cl)cc1)O2 | inactive: 0.998 |
| O=C(C[C@H]1CC[C@H](NC(=O)Cc2ccccn2)[C@@H](CO)O1)NCCc1ccncc1 | inactive: 1 |
| O=C(C[C@H]1C[C@@H]2c3cc(NS(=O)(=O)c4ccccc4)ccc3O[C@@H]2[C@@H](CO)O1)NCC(F)(F)F | inactive: 0.985 |
| COc1cccc(OCc2ccc(Cn3nc(NC(=O)NCc4ccc(F)cc4)c4ccccc43)cc2)c1 | inactive: 1.01 |
| CN(C)CCCNC(=O)[C@@H]1c2ccccc2C(=O)N(Cc2cc(C(F)(F)F)cc(C(F)(F)F)c2)[C@H]1c1ccc(CO)cc1 | inactive: 0.978 |
| CC(C)NC(=O)Nc1ccc2c(c1)C(=O)N([C@@H](C)CO)C[C@H](C)[C@@H](CN(C)Cc1ccc(Cl)c(Cl)c1)OCCCC[C@@H](C)O2 | inactive: 0.971 |
| Cc1ccc(S(=O)(=O)Nc2ccc3c(c2)C(=O)N([C@@H](C)CO)C[C@@H](C)[C@@H](CN(C)C(=O)CCC(F)(F)F)OCCCC[C@@H](C)O3)cc1 | inactive: 0.983 |
| C[C@H](O)C#Cc1ccc2c(c1)O[C@@H](CN(C)C(=O)C1CCCCC1)[C@H](C)CN([C@H](C)CO)S2(=O)=O | inactive: 0.877 |
| COc1ccc(NC(=O)N[C@@H]2CC[C@H](CCNC(=O)CN3CCOCC3)O[C@@H]2CO)cc1 | inactive: 0.991 |
